Measurements from article PMC2849011.
No constants are given. Whether binding was seen depends on the method and setting. In cells and extracts the contact can be indirect. Some entries that bind do so weakly or less than the wild type.

Protein sequences, listed by entry. Tags and fused reporters are not part of them. Lines headed by an entry give the natural chain unless they say otherwise; changes in a name come on top.
UniProt Q00403: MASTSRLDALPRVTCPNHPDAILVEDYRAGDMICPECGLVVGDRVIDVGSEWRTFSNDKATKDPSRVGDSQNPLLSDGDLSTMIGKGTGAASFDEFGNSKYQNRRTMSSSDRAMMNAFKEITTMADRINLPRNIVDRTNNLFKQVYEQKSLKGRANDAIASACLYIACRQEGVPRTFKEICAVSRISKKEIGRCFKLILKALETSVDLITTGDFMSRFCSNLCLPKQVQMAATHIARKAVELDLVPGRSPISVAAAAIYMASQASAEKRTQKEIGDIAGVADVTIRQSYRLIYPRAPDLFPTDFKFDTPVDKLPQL
UniProt Q9NP77: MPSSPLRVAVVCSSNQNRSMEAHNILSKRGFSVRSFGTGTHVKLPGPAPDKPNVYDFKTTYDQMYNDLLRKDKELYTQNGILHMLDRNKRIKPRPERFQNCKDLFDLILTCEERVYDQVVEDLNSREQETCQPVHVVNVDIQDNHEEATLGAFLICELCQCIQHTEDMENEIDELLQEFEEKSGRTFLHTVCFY

T1: CstF-64 (human (endogenous in HEK293T)) (UniProt P33240)
T1 sequence: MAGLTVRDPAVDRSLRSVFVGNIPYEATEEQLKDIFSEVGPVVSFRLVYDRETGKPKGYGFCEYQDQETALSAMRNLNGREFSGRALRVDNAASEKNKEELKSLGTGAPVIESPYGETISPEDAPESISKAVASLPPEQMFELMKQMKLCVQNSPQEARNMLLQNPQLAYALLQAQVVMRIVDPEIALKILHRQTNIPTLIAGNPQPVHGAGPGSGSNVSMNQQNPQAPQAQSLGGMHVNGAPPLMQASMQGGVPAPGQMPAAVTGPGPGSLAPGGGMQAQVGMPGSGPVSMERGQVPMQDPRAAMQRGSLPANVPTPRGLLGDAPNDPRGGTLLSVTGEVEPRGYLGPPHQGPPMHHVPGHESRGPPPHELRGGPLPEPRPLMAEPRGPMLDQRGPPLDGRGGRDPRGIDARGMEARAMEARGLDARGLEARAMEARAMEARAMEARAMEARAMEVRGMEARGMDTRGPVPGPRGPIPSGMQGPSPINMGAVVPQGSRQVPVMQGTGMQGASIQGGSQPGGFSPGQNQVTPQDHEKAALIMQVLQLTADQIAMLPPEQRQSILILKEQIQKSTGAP


Experiments:
[1] = molecular target: HA-tagged TFIIB S65A (human) (UniProt Q00403); assay: co-IP; HEK293T transfected with HA-tagged TFIIB or S65A; cells untreated or treated with 100 nM calyculin A for 30 min before lysis; anti-HA immunoprecipitation in buffer with phosphatase inhibitors; immunoblot with anti-Ssu72 and anti-CstF-64
[2] = molecular target: HA-tagged wild-type TFIIB (human) (UniProt Q00403); assay: as above
[3] = molecular target: T1, CstF-64 (human (endogenous in HEK293T)); assay: co-IP; endogenous proteins; HEK293T whole-cell extract prepared with phosphatase inhibitors, mock treated; immunoprecipitation with anti-Ssu72 or anti-CstF-64 antibodies, immunoblot with anti-TFIIB
[4] = molecular target: Ssu72 (human (endogenous in HEK293T)) (UniProt Q9NP77); assay: as above
[5] = molecular target: T1, CstF-64 (human (endogenous in HEK293T)); assay: condition: only extracts treated with lambda phosphatase; co-IP; endogenous proteins; HEK293T whole-cell extract treated with lambda phosphatase before immunoprecipitation with anti-Ssu72 or anti-CstF-64 antibodies, immunoblot with anti-TFIIB
[6] = molecular target: Ssu72 (human (endogenous in HEK293T)) (UniProt Q9NP77); assay: co-IP; endogenous proteins; HEK293T whole-cell extract treated with lambda phosphatase before immunoprecipitation with anti-Ssu72 or anti-CstF-64 antibodies, immunoblot with anti-TFIIB

Molecule	binding [1]	binding [2]	binding [3]	binding [4]	binding [5]	binding [6]
Ssu72 (from UniProt Q9NP77 1-194)	binds	binds				
TFIIB (endogenous) (from UniProt Q00403 1-316)			binds	binds	no binding	binds
CstF-64 (protein, UniProt P33240 1-577) MAGLTVRDPAVDRSLRSVFVGNIPYEATEEQLKDIFSEVGPVVSFRLVYDRETGKPKGYGFCEYQDQETALSAMRNLNGREFSGRALRVDNAASEKNKEELKSLGTGAPVIESPYGETISPEDAPESISKAVASLPPEQMFELMKQMKLCVQNSPQEARNMLLQNPQLAYALLQAQVVMRIVDPEIALKILHRQTNIPTLIAGNPQPVHGAGPGSGSNVSMNQQNPQAPQAQSLGGMHVNGAPPLMQASMQGGVPAPGQMPAAVTGPGPGSLAPGGGMQAQVGMPGSGPVSMERGQVPMQDPRAAMQRGSLPANVPTPRGLLGDAPNDPRGGTLLSVTGEVEPRGYLGPPHQGPPMHHVPGHESRGPPPHELRGGPLPEPRPLMAEPRGPMLDQRGPPLDGRGGRDPRGIDARGMEARAMEARGLDARGLEARAMEARAMEARAMEARAMEARAMEVRGMEARGMDTRGPVPGPRGPIPSGMQGPSPINMGAVVPQGSRQVPVMQGTGMQGASIQGGSQPGGFSPGQNQVTPQDHEKAALIMQVLQLTADQIAMLPPEQRQSILILKEQIQKSTGAP		binds				
